Results are given in words; binding and its absence hold for the method and conditions named. Some results given as binding are weak or reduced against the parent protein; the word gives no strength.
Tests used:
Assay in all cases: peptide or protein array; Invitrogen Protoarray v4.0, about 8,400 human proteins spotted on nitrocellulose-coated glass slides; 10 µg biotinylated tag-free NEMO in 120 µl probing buffer (PBS, 0.5 mM DTT, 5 mM MgCl2, 5% glycerol, 0.05% Triton X-100), 4°C, 1.5 h; bound NEMO detected with labelled streptavidin; hits Z-score > 3, hits of the biotin-GST control array subtracted; both purified
[1] = target: T1, Lectin, galactoside-binding, soluble, 2 (galectin 2) (human) (UniProt P05162)
T1 sequence: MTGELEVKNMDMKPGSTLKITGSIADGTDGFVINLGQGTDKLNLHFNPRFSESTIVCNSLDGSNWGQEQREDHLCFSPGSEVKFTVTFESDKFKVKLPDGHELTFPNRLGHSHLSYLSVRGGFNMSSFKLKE

Protein sequences, listed by entry. Tags and fused reporters are not part of them.
UniProt P33993: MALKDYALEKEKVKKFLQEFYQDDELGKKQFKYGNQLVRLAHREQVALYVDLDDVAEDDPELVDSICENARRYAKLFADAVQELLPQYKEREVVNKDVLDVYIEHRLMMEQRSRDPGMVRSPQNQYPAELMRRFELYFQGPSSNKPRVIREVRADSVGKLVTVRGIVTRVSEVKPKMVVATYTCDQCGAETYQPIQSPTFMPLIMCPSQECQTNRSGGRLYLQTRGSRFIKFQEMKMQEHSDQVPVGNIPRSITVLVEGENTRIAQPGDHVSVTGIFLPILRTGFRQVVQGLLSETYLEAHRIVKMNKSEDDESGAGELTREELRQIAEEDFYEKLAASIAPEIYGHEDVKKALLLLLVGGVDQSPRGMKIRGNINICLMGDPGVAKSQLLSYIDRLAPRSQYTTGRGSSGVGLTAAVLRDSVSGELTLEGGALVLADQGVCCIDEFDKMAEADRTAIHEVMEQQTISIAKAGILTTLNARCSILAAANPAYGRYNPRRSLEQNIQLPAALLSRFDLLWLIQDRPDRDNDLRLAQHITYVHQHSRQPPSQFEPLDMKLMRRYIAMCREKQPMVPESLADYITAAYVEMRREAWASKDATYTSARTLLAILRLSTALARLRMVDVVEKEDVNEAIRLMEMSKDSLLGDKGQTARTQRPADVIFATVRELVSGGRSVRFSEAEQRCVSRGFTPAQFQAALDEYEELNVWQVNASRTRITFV

[2] = target: T2, FERM domain containing 8 (human) (UniProt Q9BZ67)
T2 sequence: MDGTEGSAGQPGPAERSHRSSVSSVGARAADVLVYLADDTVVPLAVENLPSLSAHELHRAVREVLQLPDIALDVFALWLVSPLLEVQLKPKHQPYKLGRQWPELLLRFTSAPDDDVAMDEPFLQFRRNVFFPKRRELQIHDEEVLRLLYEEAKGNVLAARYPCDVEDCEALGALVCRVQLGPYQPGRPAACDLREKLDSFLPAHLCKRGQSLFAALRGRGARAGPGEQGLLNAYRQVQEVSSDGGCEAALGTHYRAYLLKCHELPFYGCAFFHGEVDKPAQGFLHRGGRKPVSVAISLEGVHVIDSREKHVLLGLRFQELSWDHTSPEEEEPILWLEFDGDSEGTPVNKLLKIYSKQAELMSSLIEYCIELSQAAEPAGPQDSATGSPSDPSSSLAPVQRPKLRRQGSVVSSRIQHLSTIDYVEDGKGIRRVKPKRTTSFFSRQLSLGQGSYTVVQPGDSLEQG

[3] = target: MCM7 minichromosome maintenance deficient 7 (human) (UniProt P33993)
Glycogenin 2 (human) = target: T3, Glycogenin 2 (human) (UniProt O15488)
T3 sequence: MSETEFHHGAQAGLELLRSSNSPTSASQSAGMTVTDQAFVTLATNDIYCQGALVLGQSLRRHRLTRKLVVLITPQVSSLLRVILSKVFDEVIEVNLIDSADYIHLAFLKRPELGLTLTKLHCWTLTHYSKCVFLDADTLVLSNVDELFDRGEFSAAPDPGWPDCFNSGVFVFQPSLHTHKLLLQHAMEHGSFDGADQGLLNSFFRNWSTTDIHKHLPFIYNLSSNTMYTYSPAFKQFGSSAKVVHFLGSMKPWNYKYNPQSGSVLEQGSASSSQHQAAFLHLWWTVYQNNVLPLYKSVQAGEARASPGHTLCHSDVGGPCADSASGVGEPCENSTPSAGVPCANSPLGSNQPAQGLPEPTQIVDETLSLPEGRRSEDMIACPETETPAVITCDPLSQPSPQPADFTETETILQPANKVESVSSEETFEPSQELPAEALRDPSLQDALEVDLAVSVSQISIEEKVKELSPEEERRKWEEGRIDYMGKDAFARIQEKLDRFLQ

[4] = target: T4, TFS2-M domain-containing protein 1 (human) (UniProt Q8N8B7)
T4 sequence: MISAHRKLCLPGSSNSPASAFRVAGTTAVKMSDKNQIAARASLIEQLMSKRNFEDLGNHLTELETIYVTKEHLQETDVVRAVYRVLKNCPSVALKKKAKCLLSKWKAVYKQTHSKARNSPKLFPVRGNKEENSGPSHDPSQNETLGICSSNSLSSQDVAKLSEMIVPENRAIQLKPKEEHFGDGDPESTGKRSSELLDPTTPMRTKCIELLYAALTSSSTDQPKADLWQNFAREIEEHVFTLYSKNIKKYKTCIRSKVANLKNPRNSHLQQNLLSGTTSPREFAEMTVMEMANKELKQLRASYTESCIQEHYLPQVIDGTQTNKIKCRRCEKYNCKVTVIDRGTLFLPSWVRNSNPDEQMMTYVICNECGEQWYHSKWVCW

- binding [1]: binds
- binding [2]: binds
- binding [3]: binds
- binding (Glycogenin 2 (human)): binds
- binding [4]: binds
Substance: NEMO (NF-κB essential modulator), tag-free, biotinylated (from UniProt Q9Y6K9 1-419)

From article PMC2808332
